# This is one part of the list.
# B1: CFEM-PPl (Pichia pastoris), F2QPV1 (protein)
# chain: AVATPPACLLACAAEVVKESSDCDALNNIQCICENEGSAIHACLESTCPDGLSSTALQSFEDVCESVGTEANLDE
# Legend:
# Assay in all cases: glycan array binding signal (z-score within array); higher = stronger binding
# Conditions in all cases: glycan notation: IUPAC condensed, linker removed
# [1] = molecular target: Man(a1-2)Man(a1-3)[Man(a1-2)Man(a1-6)]Man
# Method in brief: (§1)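 The Consortium for Functional Glycomics database supplied 3228 glycan arrays, of which those lacking an available protein sequence were dropped. The binding signal, a within-array Z-score, was averaged across arrays of the same protein sequence and across linkers. Negative scores can be read as non-binding.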
# [2] = molecular target: Man(a1-2)Man(a1-3)[Man(a1-2)Man(a1-6)]Man(a1-6)[Man(a1-2)Man(a1-2)Man(a1-3)]Man
# Method in brief: as §1
# [3] = molecular target: Man(a1-2)Man(a1-3)[Man(a1-2)Man(a1-6)]Man(a1-6)[Man(a1-2)Man(a1-2)Man(a1-3)]Man(b1-4)GlcNAc(b1-4)GlcNAc
# Method in brief: as §1
# [4] = molecular target: Man(a1-2)Man(a1-3)[Man(a1-6)]Man(a1-6)[Man(a1-2)Man(a1-3)]Man(b1-4)GlcNAc(b1-4)GlcNAc
# Method in brief: as §1
# [5] = molecular target: Man(a1-2)Man(a1-6)[Man(a1-3)]Man(a1-6)[Man(a1-2)Man(a1-2)Man(a1-3)]Man
# Method in brief: as §1
# [6] = molecular target: Man(a1-2)Man(a1-6)[Man(a1-3)]Man(a1-6)[Man(a1-2)Man(a1-2)Man(a1-3)]Man(b1-4)GlcNAc(b1-4)GlcNAc
# Method in brief: as §1
# Man(a1-3)[Man(a1-6)]Man = molecular target: Man(a1-3)[Man(a1-6)]Man
# Method in brief: as §1
# [7] = molecular target: Man(a1-3)[Man(a1-6)]Man(a1-6)[Man(a1-2)Man(a1-3)]Man(b1-4)GlcNAc(b1-4)GlcNAc
# Method in brief: as §1
# [8] = molecular target: Man(a1-3)[Man(a1-6)]Man(a1-6)[Man(a1-3)]Man
# Method in brief: as §1
# [9] = molecular target: Man(a1-3)[Man(a1-6)]Man(a1-6)[Man(a1-3)]Man(b1-4)GlcNAc(b1-4)GlcNAc
# Method in brief: as §1
# [10] = molecular target: Man(a1-3)[Man(a1-6)]Man(b1-4)GlcNAc(b1-4)GlcNAc
# Method in brief: as §1
# [11] = molecular target: Man(a1-3)[Man(a1-6)]Man(b1-4)GlcNAc(b1-4)[Fuc(a1-6)]GlcNAc
# Method in brief: as §1
# Man(a1-6)Man = molecular target: Man(a1-6)Man
# Method in brief: as §1
# Man(b1-4)GlcNAc = molecular target: Man(b1-4)GlcNAc
# Method in brief: as §1
# MurNAc(b1-4)GlcNAc = molecular target: MurNAc(b1-4)GlcNAc
# Method in brief: as §1
# Neu5Ac(a2-3)Gal = molecular target: Neu5Ac(a2-3)Gal
# Method in brief: as §1
# [12] = molecular target: Neu5Ac(a2-3)Gal(b1-3)GalNAc
# Method in brief: as §1
# [13] = molecular target: Neu5Ac(a2-3)Gal(b1-3)GalNAc(b1-3)Gal(a1-4)Gal(b1-4)Glc
# Method in brief: as §1
# [14] = molecular target: Neu5Ac(a2-3)Gal(b1-3)GalNAc(b1-4)[Neu5Ac(a2-3)]Gal(b1-4)Glc
# Method in brief: as §1
# [15] = molecular target: Neu5Ac(a2-3)Gal(b1-3)GalNAc(b1-4)[Neu5Ac(a2-8)Neu5Ac(a2-3)]Gal(b1-4)Glc
# Method in brief: as §1
# [16] = molecular target: Neu5Ac(a2-3)Gal(b1-3)GalNAc6S
# Method in brief: as §1
# [17] = molecular target: Neu5Ac(a2-3)Gal(b1-3)GlcNAc
# Method in brief: as §1
# [18] = molecular target: Neu5Ac(a2-3)Gal(b1-3)GlcNAc(b1-2)Man
# Method in brief: as §1
# [19] = molecular target: Neu5Ac(a2-3)Gal(b1-3)GlcNAc(b1-2)Man(a1-3)[GlcNAc(b1-4)][Neu5Ac(a2-3)Gal(b1-3)GlcNAc(b1-2)Man(a1-6)]Man(b1-4)GlcNAc(b1-4)GlcNAc
# Method in brief: as §1
# [20] = molecular target: Neu5Ac(a2-3)Gal(b1-3)GlcNAc(b1-2)Man(a1-3)[Neu5Ac(a2-3)Gal(b1-3)GlcNAc(b1-2)Man(a1-6)]Man(b1-4)GlcNAc(b1-4)GlcNAc
# Method in brief: as §1
# [21] = molecular target: Neu5Ac(a2-3)Gal(b1-3)GlcNAc(b1-3)Gal(b1-3)GlcNAc
# Method in brief: as §1
# [22] = molecular target: Neu5Ac(a2-3)Gal(b1-3)GlcNAc(b1-3)Gal(b1-4)GlcNAc
# Method in brief: as §1
# [23] = molecular target: Neu5Ac(a2-3)Gal(b1-3)GlcNAc(b1-3)GalNAc
# Method in brief: as §1
# [24] = molecular target: Neu5Ac(a2-3)Gal(b1-3)GlcNAc(b1-4)Gal(b1-4)Glc
# Method in brief: as §1
# [25] = molecular target: Neu5Ac(a2-3)Gal(b1-3)GlcNAc(b1-6)GalNAc
# Method in brief: as §1
# [26] = molecular target: Neu5Ac(a2-3)Gal(b1-3)GlcNAc6S
# Method in brief: as §1
# [27] = molecular target: Neu5Ac(a2-3)Gal(b1-3)[Fuc(a1-4)]GlcNAc
# Method in brief: as §1
# [28] = molecular target: Neu5Ac(a2-3)Gal(b1-3)[Fuc(a1-4)]GlcNAc(b1-3)Gal(b1-3)[Fuc(a1-4)]GlcNAc
# Method in brief: as §1
# [29] = molecular target: Neu5Ac(a2-3)Gal(b1-3)[Fuc(a1-4)]GlcNAc(b1-3)Gal(b1-4)[Fuc(a1-3)]GlcNAc
# Method in brief: as §1
# [30] = molecular target: Neu5Ac(a2-3)Gal(b1-3)[GlcNAc(b1-6)]GalNAc
# Method in brief: as §1
# [31] = molecular target: Neu5Ac(a2-3)Gal(b1-3)[Neu5Ac(a2-6)]GalNAc
# Method in brief: as §1
# [32] = molecular target: Neu5Ac(a2-3)Gal(b1-3)[Neu5Ac(a2-6)]GlcNAc(b1-3)[Fuc(a1-3)[Gal(b1-4)]GlcNAc(b1-6)]Gal(b1-4)Glc
# Method in brief: as §1
# [33] = molecular target: Neu5Ac(a2-3)Gal(b1-3)]Neu5Ac(a2-3)Gal(b1-4)]GlcNAc
# Method in brief: as §1
# Neu5Ac(a2-3)Gal(b1-4)Glc = molecular target: Neu5Ac(a2-3)Gal(b1-4)Glc
# Method in brief: as §1
# [34] = molecular target: Neu5Ac(a2-3)Gal(b1-4)GlcNAc
# Method in brief: as §1
# [35] = molecular target: Neu5Ac(a2-3)Gal(b1-4)GlcNAc(b1-2)Man
# Method in brief: as §1
# [36] = molecular target: Neu5Ac(a2-3)Gal(b1-4)GlcNAc(b1-2)Man(a1-3)[GlcNAc(b1-4)][Neu5Ac(a2-3)Gal(b1-4)GlcNAc(b1-2)Man(a1-6)]Man(b1-4)GlcNAc(b1-4)GlcNAc
# Method in brief: as §1
# [37] = molecular target: Neu5Ac(a2-3)Gal(b1-4)GlcNAc(b1-2)Man(a1-3)[Neu5Ac(a2-3)Gal(b1-4)GlcNAc(b1-2)Man(a1-6)]Man(b1-4)GlcNAc(b1-4)GlcNAc
# Method in brief: as §1
# [38] = molecular target: Neu5Ac(a2-3)Gal(b1-4)GlcNAc(b1-2)Man(a1-3)[Neu5Ac(a2-3)Gal(b1-4)GlcNAc(b1-2)Man(a1-6)]Man(b1-4)GlcNAc(b1-4)[Fuc(a1-6)]GlcNAc
# Method in brief: as §1
# [39] = molecular target: Neu5Ac(a2-3)Gal(b1-4)GlcNAc(b1-2)Man(a1-3)[Neu5Ac(a2-6)Gal(b1-4)GlcNAc(b1-2)Man(a1-6)]Man(b1-4)GlcNAc(b1-4)GlcNAc
# Method in brief: as §1
binder,measurement,setting,value
B1,glycan array binding signal (z-score),[1],-0.263
same,glycan array binding signal (z-score),[2],-0.144
same,glycan array binding signal (z-score),[3],-0.249
same,glycan array binding signal (z-score),[4],-0.138
same,glycan array binding signal (z-score),[5],-0.274
same,glycan array binding signal (z-score),[6],-0.357
same,glycan array binding signal (z-score),Man(a1-3)[Man(a1-6)]Man,-0.244
same,glycan array binding signal (z-score),[7],-0.336
same,glycan array binding signal (z-score),[8],-0.201
same,glycan array binding signal (z-score),[9],-0.316
same,glycan array binding signal (z-score),[10],-0.296
same,glycan array binding signal (z-score),[11],-0.164
same,glycan array binding signal (z-score),Man(a1-6)Man,-0.322
same,glycan array binding signal (z-score),Man(b1-4)GlcNAc,-0.273
same,glycan array binding signal (z-score),MurNAc(b1-4)GlcNAc,-0.357
same,glycan array binding signal (z-score),Neu5Ac(a2-3)Gal,-0.313
same,glycan array binding signal (z-score),[12],-0.16
same,glycan array binding signal (z-score),[13],0.058
same,glycan array binding signal (z-score),[14],-0.267
same,glycan array binding signal (z-score),[15],-0.11
same,glycan array binding signal (z-score),[16],-0.222
same,glycan array binding signal (z-score),[17],-0.26
same,glycan array binding signal (z-score),[18],-0.229
same,glycan array binding signal (z-score),[19],-0.135
same,glycan array binding signal (z-score),[20],-0.355
same,glycan array binding signal (z-score),[21],-0.26
same,glycan array binding signal (z-score),[22],-0.283
same,glycan array binding signal (z-score),[23],-0.285
same,glycan array binding signal (z-score),[24],-0.344
same,glycan array binding signal (z-score),[25],-0.343
same,glycan array binding signal (z-score),[26],-0.331
same,glycan array binding signal (z-score),[27],-0.137
same,glycan array binding signal (z-score),[28],-0.196
same,glycan array binding signal (z-score),[29],-0.193
same,glycan array binding signal (z-score),[30],-0.379
same,glycan array binding signal (z-score),[31],-0.102
same,glycan array binding signal (z-score),[32],-0.169
same,glycan array binding signal (z-score),[33],-0.27
same,glycan array binding signal (z-score),Neu5Ac(a2-3)Gal(b1-4)Glc,-0.259
same,glycan array binding signal (z-score),[34],-0.261
same,glycan array binding signal (z-score),[35],-0.169
same,glycan array binding signal (z-score),[36],-0.274
same,glycan array binding signal (z-score),[37],-0.287
same,glycan array binding signal (z-score),[38],-0.033
same,glycan array binding signal (z-score),[39],-0.337

# — the supplement of paper PMC8728848
